Reference: the supplement of paper PMC12217912
The list shows a part of the results. The full chains were built here from the parent and the listed change. Inactive controls read about 0.05.

B1: TEV protease; numbered along this chain (parent)
chain: MGESLFKGPRDYNPISSSICHLTNESDGHTTSLYGIGFGPFIITNKHLFRRNNGTLVVQSLHGVFKVKDTTTLQQHLVDGRDMIIIRMPKDFPPFPQKLKFREPQREERICLVTTNFQTKSMSSMVSDTSCTFPSGDGIFWKHWIQTKDGQCGSPLVSTRDGFIVGIHSASNFTNTNNYFTSVPKNFMELLTNQEAQQWVSGWRLNADSVLWGGHKVFMVKPEEPFQPVKEATQL

Variants of: B1
Experiment: raw area under fraction-flipped curve 0-4 h after induction (AUC4h, not background-subtracted), DNA-recorder readout of cleavage of the substrate (dimensionless); higher = more cleavage of the substrate by the protease variant
Conditions: temperature: 34 °C; time window: 0-4 h after rhamnose induction
Experimental: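 In vivo DNA recorder in E. coli TOP10(DE3) ΔrhaA at 34 °C. Each TEVp single-site mutant (parent TEVp 0) is paired with a single-site variant of the 7-mer TEVs (canonical ENLYFQ|S). The substrate sits between flexible linkers in a Bxb1-sfGFP-TEVs-SsrA fusion, so cleavage stabilises Bxb1 and speeds flipping of a recombination array, read by NGS. The value is the raw area under the fraction-flipped curve over 0-4 h after rhamnose induction (AUC4h), with ≥20 reads per time point. It is not background-subtracted; inactive controls average about 0.047.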
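Note: Bxb1 expression induced with 0.2% (w/v) L-rhamnose at OD600 near 0.5, cultures sampled hourly, flipped fraction per protease–substrate barcode pair counted by paired-end Illumina sequencing.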

K120H
area with substrate ENLYFAS: 0.0638
area with substrate ENLYFCS: 0.0646
area with substrate ENLYFDS: 0.0472
area with substrate ENLYFES: 0.0688
area with substrate ENLYFFS: 0.0671
area with substrate ENLYFIS: 0.0521
area with substrate ENLYFMS: 0.0678
area with substrate ENLYFNS: 0.0659
area with substrate ENLYFPS: 0.0477
area with substrate ENLYFSS: 0.0469
area with substrate ENLYFTS: 0.0517
area with substrate ENLYFVS: 0.0621
area with substrate ENLYFYS: 0.0644

K120P
area with substrate ENLYFAS: 0.0577
area with substrate ENLYFDS: 0.0791
area with substrate ENLYFES: 0.0638
area with substrate ENLYFFS: 0.0693
area with substrate ENLYFGS: 0.0608
area with substrate ENLYFIS: 0.0462
area with substrate ENLYFMS: 0.0595
area with substrate ENLYFNS: 0.0576
area with substrate ENLYFPS: 0.0535
area with substrate ENLYFSS: 0.0537
area with substrate ENLYFTS: 0.0608
area with substrate ENLYFWS: 0.0549
area with substrate ENLYFYS: 0.0635

K120W
area with substrate ENLYFAS: 0.0539
area with substrate ENLYFDS: 0.0561
area with substrate ENLYFES: 0.0539
area with substrate ENLYFFS: 0.0888
area with substrate ENLYFHS: 0.0235
area with substrate ENLYFIS: 0.0546
area with substrate ENLYFLS: 0.0512
area with substrate ENLYFMS: 0.068
area with substrate ENLYFRS: 0.0462
area with substrate ENLYFSS: 0.0636
area with substrate ENLYFTS: 0.0499
area with substrate ENLYFVS: 0.0743

K120Y
area with substrate ENLYFAS: 0.0633
area with substrate ENLYFDS: 0.0791
area with substrate ENLYFES: 0.0589
area with substrate ENLYFFS: 0.0452
area with substrate ENLYFGS: 0.0702
area with substrate ENLYFHS: 0.0709
area with substrate ENLYFIS: 0.0506
area with substrate ENLYFKS: 0.0582
area with substrate ENLYFMS: 0.0664
area with substrate ENLYFNS: 0.0682
area with substrate ENLYFPS: 0.0767
area with substrate ENLYFRS: 0.0617
area with substrate ENLYFSS: 0.0448
area with substrate ENLYFTS: 0.0544
area with substrate ENLYFVS: 0.0563
area with substrate ENLYFWS: 0.0807
area with substrate ENLYFYS: 0.0622

D128C
area with substrate ENLYFAS: 0.0627
area with substrate ENLYFCS: 0.0593
area with substrate ENLYFGS: 0.0601
area with substrate ENLYFIS: 0.0532
area with substrate ENLYFKS: 0.0514
area with substrate ENLYFLS: 0.0498
area with substrate ENLYFMS: 0.0947
area with substrate ENLYFNS: 0.0634
area with substrate ENLYFPS: 0.0623
area with substrate ENLYFRS: 0.0507
area with substrate ENLYFSS: 0.0572
area with substrate ENLYFTS: 0.0584
area with substrate ENLYFVS: 0.0593
area with substrate ENLYFYS: 0.0588

D128E
area with substrate ENLYFAS: 0.0634
area with substrate ENLYFCS: 0.0593
area with substrate ENLYFES: 0.0806
area with substrate ENLYFFS: 0.0708
area with substrate ENLYFGS: 0.0634
area with substrate ENLYFHS: 0.0648
area with substrate ENLYFIS: 0.0653
area with substrate ENLYFKS: 0.078
area with substrate ENLYFLS: 0.0577
area with substrate ENLYFMS: 0.0612
area with substrate ENLYFPS: 0.0648
area with substrate ENLYFSS: 0.0574
area with substrate ENLYFTS: 0.0663
area with substrate ENLYFWS: 0.0526

D128I
area with substrate ENLYFAS: 0.0623
area with substrate ENLYFCS: 0.0767
area with substrate ENLYFES: 0.0677
area with substrate ENLYFGS: 0.0371
area with substrate ENLYFHS: 0.0618
area with substrate ENLYFIS: 0.0634
area with substrate ENLYFLS: 0.0596
area with substrate ENLYFMS: 0.0993
area with substrate ENLYFPS: 0.0617
area with substrate ENLYFRS: 0.0709
area with substrate ENLYFTS: 0.0579
area with substrate ENLYFVS: 0.0496

D128L
area with substrate ENLYFAS: 0.0467
area with substrate ENLYFCS: 0.067
area with substrate ENLYFDS: 0.0659
area with substrate ENLYFFS: 0.0706
area with substrate ENLYFHS: 0.0548
area with substrate ENLYFIS: 0.0697
area with substrate ENLYFKS: 0.0668
area with substrate ENLYFNS: 0.077
area with substrate ENLYFPS: 0.0545
area with substrate ENLYFRS: 0.0771
area with substrate ENLYFSS: 0.0582
area with substrate ENLYFTS: 0.0613
area with substrate ENLYFVS: 0.0654
area with substrate ENLYFWS: 0.0605

D128M
area with substrate ENLYFAS: 0.0534
area with substrate ENLYFCS: 0.0653
area with substrate ENLYFES: 0.0638
area with substrate ENLYFFS: 0.0688
area with substrate ENLYFGS: 0.0618
area with substrate ENLYFIS: 0.0585
area with substrate ENLYFKS: 0.0524
area with substrate ENLYFLS: 0.074
area with substrate ENLYFMS: 0.08
area with substrate ENLYFNS: 0.0807
area with substrate ENLYFPS: 0.0591
area with substrate ENLYFTS: 0.0559
area with substrate ENLYFVS: 0.0609
area with substrate ENLYFWS: 0.0668
area with substrate ENLYFYS: 0.0529

D128N
area with substrate ENLYFAS: 0.0869
area with substrate ENLYFCS: 0.0548
area with substrate ENLYFES: 0.0651
area with substrate ENLYFFS: 0.0643
area with substrate ENLYFGS: 0.0731
area with substrate ENLYFHS: 0.0683
area with substrate ENLYFIS: 0.0621
area with substrate ENLYFMS: 0.0696
area with substrate ENLYFNS: 0.0614
area with substrate ENLYFPS: 0.0083
area with substrate ENLYFRS: 0.0705
area with substrate ENLYFTS: 0.0739
area with substrate ENLYFVS: 0.0652
area with substrate ENLYFYS: 0.0654

D128R
area with substrate ENLYFAS: 0.0862
area with substrate ENLYFES: 0.067
area with substrate ENLYFFS: 0.0611
area with substrate ENLYFHS: 0.0529
area with substrate ENLYFIS: 0.0378
area with substrate ENLYFLS: 0.039
area with substrate ENLYFMS: 0.0787
area with substrate ENLYFPS: 0.0592
area with substrate ENLYFRS: 0.0625
area with substrate ENLYFSS: 0.0535

D128W
area with substrate ENLYFAS: 0.044
area with substrate ENLYFCS: 0.0702
area with substrate ENLYFFS: 0.0509
area with substrate ENLYFGS: 0.0512
area with substrate ENLYFIS: 0.0645
area with substrate ENLYFKS: 0.0664
area with substrate ENLYFLS: 0.043
area with substrate ENLYFMS: 0.0911
area with substrate ENLYFRS: 0.0504
area with substrate ENLYFSS: 0.0481
area with substrate ENLYFTS: 0.0419

D128Y
area with substrate ENLYFAS: 0.0698
area with substrate ENLYFCS: 0.0665
area with substrate ENLYFES: 0.0682
area with substrate ENLYFGS: 0.0438
area with substrate ENLYFIS: 0.0553
area with substrate ENLYFMS: 0.0407
area with substrate ENLYFPS: 0.0723
area with substrate ENLYFSS: 0.0529
area with substrate ENLYFTS: 0.0721
area with substrate ENLYFYS: 0.0491

P134H
area with substrate ENLYFAS: 0.0633
area with substrate ENLYFCS: 0.0576
area with substrate ENLYFES: 0.0533
area with substrate ENLYFFS: 0.0758
area with substrate ENLYFGS: 0.0582
area with substrate ENLYFHS: 0.0614
area with substrate ENLYFIS: 0.0574
area with substrate ENLYFKS: 0.0633
area with substrate ENLYFLS: 0.0408
area with substrate ENLYFMS: 0.0492
area with substrate ENLYFNS: 0.0491
area with substrate ENLYFPS: 0.0645
area with substrate ENLYFRS: 0.0544
area with substrate ENLYFTS: 0.0693
area with substrate ENLYFVS: 0.0626
area with substrate ENLYFWS: 0.0612
area with substrate ENLYFYS: 0.0618
